Assay [1] addresses T1, human VEGF-A isoform 121 (human, UniProt P15692-9 27-147).
T1 sequence (looked up): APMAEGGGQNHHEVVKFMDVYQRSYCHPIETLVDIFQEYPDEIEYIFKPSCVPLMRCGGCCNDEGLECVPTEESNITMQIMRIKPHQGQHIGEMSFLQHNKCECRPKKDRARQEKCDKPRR
The assay can be described thus: cell-based or functional assay.

Assay [2] has as its target T1, human VEGF-A isoform 121. As to the kind of experiment: cell-based or functional assay. This is another data set of the same source.
Assay [3] concerns the target T1, human VEGF-A isoform 121. As to the kind of experiment: SPR (Biacore), VEGF121 immobilized on chip. The text has this:
(§1) The obtained data were processed via the BIAevaluation software and 1:1-Langmuir-fitting.
Background: SPR reads the build-up and loss of mass on a sensor chip optically.

Assay [4] addresses T2, human VEGF-A isoform 165 (human, UniProt P15692-4 27-191).
T2 construct: mature; also called VEGF165; hVEGF165
T2 sequence (looked up): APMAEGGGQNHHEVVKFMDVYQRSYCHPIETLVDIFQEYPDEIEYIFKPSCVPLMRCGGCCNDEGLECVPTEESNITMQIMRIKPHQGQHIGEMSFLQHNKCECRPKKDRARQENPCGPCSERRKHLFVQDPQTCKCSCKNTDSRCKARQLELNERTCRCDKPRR
As to the kind of experiment: SPR (Biacore), VEGF165 immobilized on chip.
Text: as §1

The target of assay [5] is T2, human VEGF-A isoform 165. As to the kind of experiment: concentration dependent ELISA, VEGF165 coated, apparent KD. The method, then:
(§2) As negative control, NGF was used (symbol—star-connected by a broken line).
(§3) Binding of ubiquitin-based variants to human VEGF-A was assayed by a concentration dependent ELISA. […] Antigen coating with 1 to 2.5 μg/ml per well was performed at 4° C. overnight. After washing the plates with PBS, 0.1% Tween 20 pH 7.4 (PBST) the wells were blocked using blocking solution (PBS pH 7.4; 3% BSA; 0.5% Tween 20) at room temperature for 2 h. Wells were washed again three times with PBST. Different concentrations of modified ubiquitin based VEGF-A binding protein were then incubated in the wells at RT for 1 h (see FIG. 3). After washing the wells with PBST, the anti-Ubi fab fragment (a-Ubi-Fab) POD conjugate was applied in an appropriate dilution (for example, 1:6500) in PBST. The plate was washed three times with 300 μl buffer PBST/well. 50 μl TMB substrate solution (KEM-EN-Tec) were added to each well and was incubated. The reaction was stopped by adding 0.2 M H₂SO₄ per well. The ELISA plates were read out using the TECAN Sunrise ELISA-Reader. The photometric absorbance measurements were done at 450 nm using 620 nm as a reference wavelength.
(In general: An ELISA detects its analyte on a solid surface through an enzyme-linked reagent.)

Assay [6] has as its target T1, human VEGF-A isoform 121. As to the kind of experiment: SPR (Biacore), VEGF121 immobilized on chip, 1:1 Langmuir fit.
Text: as §1

Assay [7] has as its target T2, human VEGF-A isoform 165. As to the kind of experiment: SPR (Biacore), VEGF165 immobilized on chip, 1:1 Langmuir fit.
Text: as §1

Assay [8] deals with T1, human VEGF-A isoform 121. As to the kind of experiment: concentration dependent ELISA, VEGF121 coated, apparent KD; ELISA, not Biacore; hVEGF121. The method, then:
as §2, §3

Assay [9] concerns the target T1, human VEGF-A isoform 121. As to the kind of experiment: SPR (Biacore), 245 RU VEGF121 immobilized on CM5 chip, 0 - 1000 nM 40401 as analyte, 1:1 Langmuir fit.
Text: as §1

Assay [10] has as its target T2, human VEGF-A isoform 165. As to the kind of experiment: SPR (Biacore), 260 RU VEGF165 immobilized on CM5 chip, 0 - 1000 nM 40401 as analyte, 1:1 Langmuir fit.
Text: as §1

Assay [11] has as its target T1, human VEGF-A isoform 121. The assay can be described thus: concentration dependent ELISA, VEGF121 coated, apparent KD. On the procedure:
as §3

Results on four molecules are retold here after US20140127129A1 (SCIL PROTEINS, published 2014).

B1: VEGF-A binding protein 40401 (designed binder)
chain: MQIFVYTDTGKTITLEVEPSDTIENVKAKIQDKEGIPPDQQRLIWAGKQLEDGRTLSDYNIDVAEYLGISWMPALHLVLRLRGGGIGMQIFVATDTGKTITLEVEPSDTIENVKAKIQDKEGIPPDQQRLIWAGKQLEDGRTLSDYNIRDTVSLHLVLRLRAA
notes: also called SPVF-11-1211_A1_TsX6
With B1, in the assay with human VEGF-A isoform 121 [1], the “Cell proliferation Assay IC50” value was found to be 8 nM. In the assay with human VEGF-A isoform 121 [2], the “IC50, inhibition of VEGF-induced HUVEC proliferation (WST reagent, E450-620nM)” value came out at 8.08 nM. The koff with human VEGF-A isoform 121 [3] was 0.00176 s⁻¹; in the assay with human VEGF-A isoform 165 [4], 0.00245 s⁻¹. Besides, the Kd stood at 2.2 nM with human VEGF-A isoform 165 [5]; 15 nM in the assay with human VEGF-A isoform 121 [6]; 22 nM with human VEGF-A isoform 165 [7]; 2.5 nM in the assay with human VEGF-A isoform 121 [8]; 14.7 nM with human VEGF-A isoform 121 [9]; 21.9 nM with human VEGF-A isoform 165 [10]. Moreover, the Ka in the assay with human VEGF-A isoform 121 [9] worked out at 6.82e+07 M⁻¹; in the assay with human VEGF-A isoform 165 [10] it was 4.56e+07 M⁻¹. Also, the kon was determined as 120000 M⁻¹ s⁻¹ with human VEGF-A isoform 121 [9] and 112000 M⁻¹ s⁻¹ with human VEGF-A isoform 165 [10].

B2: VEGF-A binding protein 59603 (designed binder)
chain: MQIFVYTDTGKTITLEVEPSDTIENVKAKIQDKEGIPPDQQRLIWAGEQLEDGRTLSDYNIDVAEYLGISWMPALHLVLRLRAAGIGMRIFVYTATGKTITLEVEPSDTIENVKAKIQDKEGIPPDQQRLIWAGKQLEDGRTLSDYNISEKKKLHLVLRLRAA
notes: Hetero-dimeric modified ubiquitin with an 8 amino acid insertion in the first monomer
As for B2, the Kd with human VEGF-A isoform 121 [11] amounted to 21 nM.

B3: VEGF-A binding protein 60323 (designed binder)
chain: MQIFVYTDTGKTITLEVEPSDTIENVKAKIQDKEGIPPDQQRLIWAGKQLEDGRTLSDYNIDVAEYLGISWMPALHLVLRLRAAGIGMQIFVDTETGKTITLEVEPSDTIENVKAKIQDKEGIPPDQQRLIWAGKQLEDGRTLSDYNIEQLNWLHLVLRLRAA
notes: as for B2
As to B3, the “Cell proliferation Assay IC50” value in the assay with human VEGF-A isoform 121 [1] came out at 10 nM. Further, the results for the Kd with human VEGF-A isoform 121 [11], with human VEGF-A isoform 121 [6] and in the assay with human VEGF-A isoform 165 [7] were 2.3 nM, 16 nM and 14 nM, respectively.

B4: VEGF-A binding protein 59517 (designed binder)
chain: MQIFVYTDTGKTITLEVEPSDTIENVKAKIQDKEGIPPDQQRLIWAGKQLEDGRTLSDYNIDVAEYLGISWMPALHLVLRLRAAGIGMQIFVLTSTGKTITLEVEPSDTIENVKAKIQDKEGIPPDQQRLIWAGKQLEDGRTLSDYNITRNYHLHLVLRLRAA
notes: as for B2
Consider B4, for which the Kd in the assay with human VEGF-A isoform 121 [11] amounted to 2.9 nM.

The term koff denotes a measure of how fast the partners let go of each other. As usually defined, the kon is the rate constant with which the complex forms. Low readings indicate slower complex formation, high ones faster complex formation.
